Paper PMC4336329 (PLoS ONE, 2015)
About 2,200 (0.71%) of roughly 310,000 compounds showed an effect of 50% or more. Effects have a minus sign here. The list shows a part of the results.

The compounds below were run against human ether-à-go-go-related gene (hERG) potassium channel (human, UniProt Q12809) (assay: primary screen, population patch clamp on CHO cells stably expressing hERG).
human ether-à-go-go-related gene (hERG) potassium channel, sequence (Q12809 whole entry, looked up): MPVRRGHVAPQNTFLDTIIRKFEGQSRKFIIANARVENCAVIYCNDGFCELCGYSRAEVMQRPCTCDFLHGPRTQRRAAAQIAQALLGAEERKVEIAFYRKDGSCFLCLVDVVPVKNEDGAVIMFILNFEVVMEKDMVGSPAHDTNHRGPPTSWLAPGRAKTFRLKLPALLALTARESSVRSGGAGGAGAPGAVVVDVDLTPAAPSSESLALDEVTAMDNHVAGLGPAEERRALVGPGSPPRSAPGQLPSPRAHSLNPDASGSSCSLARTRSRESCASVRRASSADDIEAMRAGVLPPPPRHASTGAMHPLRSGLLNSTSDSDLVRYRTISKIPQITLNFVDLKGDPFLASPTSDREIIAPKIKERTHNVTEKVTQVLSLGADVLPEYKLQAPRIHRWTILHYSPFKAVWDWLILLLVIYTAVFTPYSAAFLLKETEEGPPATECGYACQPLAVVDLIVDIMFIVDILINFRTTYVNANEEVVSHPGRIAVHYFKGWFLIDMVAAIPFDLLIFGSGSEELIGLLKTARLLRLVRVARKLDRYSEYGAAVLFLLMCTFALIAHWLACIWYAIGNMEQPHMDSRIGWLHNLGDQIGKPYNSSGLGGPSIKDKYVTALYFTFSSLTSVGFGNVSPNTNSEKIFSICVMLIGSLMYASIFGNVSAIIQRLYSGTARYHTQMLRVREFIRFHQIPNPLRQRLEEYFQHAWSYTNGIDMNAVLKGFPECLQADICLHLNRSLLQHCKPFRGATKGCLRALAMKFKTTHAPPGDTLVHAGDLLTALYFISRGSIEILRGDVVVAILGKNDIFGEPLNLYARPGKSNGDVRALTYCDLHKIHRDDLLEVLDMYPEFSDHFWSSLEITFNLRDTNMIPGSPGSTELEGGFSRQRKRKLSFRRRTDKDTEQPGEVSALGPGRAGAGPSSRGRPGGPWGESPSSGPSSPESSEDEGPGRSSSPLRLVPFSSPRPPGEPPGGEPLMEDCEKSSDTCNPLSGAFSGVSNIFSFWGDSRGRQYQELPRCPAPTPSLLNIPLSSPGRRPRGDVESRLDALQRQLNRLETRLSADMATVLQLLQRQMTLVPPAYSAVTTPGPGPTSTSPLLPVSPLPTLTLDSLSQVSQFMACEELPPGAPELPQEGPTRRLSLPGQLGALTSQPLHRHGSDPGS

Structure (SMILES)	hERG current change (%, negative = inhibition) at 1uM [%]
CCCC1CCC(=NNC(=O)OC(C)(C)C)CC1 (centres unmarked)	11.1
CCOC(=O)C1=C(c2ccccc2)Nc2ncnn2C1c1cccc(OC)c1OC (centres unmarked)	21.4
N#Cc1nc(COc2ccccc2Cl)oc1NCc1cccnc1	-9.5
Nc1nc(CSc2nc3ccccc3[nH]2)cs1	13.7
O=C(NCC(=O)N1CCN(c2cccc(Cl)c2)CC1)c1ccc(Br)o1	-57.5
COc1cc2c(cc1OC)C(C)N(S(=O)(=O)c1cccs1)CC2 (centres unmarked)	11
Cc1cc(C(=O)NC(C)c2ccncc2)no1 (centres unmarked)	2.06
Cc1cccc(C)c1NC(=O)CN(C)C(=O)C1CCN(c2ncnc3sc(C)c(C)c23)CC1	-29.4
O=C(Nc1cccc2ccccc12)c1nn(C23CC4CC(CC(C4)C2)C3)cc1Br	6.53
CCOC(=O)c1sc(SC)c(C(C)=O)c1C	2.78
Nc1ccccc1C(=O)N=Nc1[nH]c(N)c2ccccc12	21
Cc1cc(=O)oc(C)c1C(=O)Nc1c(C)n(C)n(-c2ccccc2)c1=O	9.57
CCN(CCNCC(O)COCc1ccc(Cl)cc1)c1cccc(C)c1.O=C(O)C(=O)O (centres unmarked)	1.74
COC(=O)c1ccc(C23CC4(C2)[C@H](CN(C)[C@@H]4c2ccccc2)C3c2ccc(C(F)(F)F)cc2)cc1 (some centres unmarked)	-13.2
Oc1cccc(/C=N/Nc2cc(N3CCOCC3)nc(N3CCOCC3)n2)c1	4.32
O=C(O)CC1COc2ccccc2N1S(=O)(=O)c1ccc(Br)cc1 (centres unmarked)	10.9
CN(C)c1cccc2c1c(NC(=O)c1ccc(F)cc1)nn2C	-0.755
COc1cccc(CN2CCNC(=O)C2CC(=O)NCc2cn3cccc(C)c3n2)c1OC (centres unmarked)	10.7
CC(C)NC(=O)c1onc(CSc2ccc(Cl)cc2)c1C(=O)O	10.5
Cc1cc(C)cc(OCC(=O)Nc2ccccc2C(=O)NCc2ccco2)c1	11.9
Cn1c(=O)c(=O)n(C)c2cc(S(=O)(=O)N3CCCC3C(=O)NCc3ccco3)ccc21 (centres unmarked)	15.5
CC(C)CSC1=NSC2=NC(=O)/C(=C\c3ccccc3)C(=N)N12	17.5

Structure (SMILES)	hERG current change (%, negative = inhibition) at 1uM [%]
Cn1c(=S)[nH]c(=O)c2ncc(=O)[nH]c21	3.01
Cc1ccc(SCC(=O)NC2CC2)cc1	14.2
CCOC(=O)c1nn(-c2ccc(C)c(C)c2)cc1O	0.585
CCOC(=O)N1CCN(Cc2nc3c(c(=O)n(C)c(=O)n3C)n2Cc2ccccc2C)CC1	1.8
Cc1ccc(NC(=O)C2CCCN2S(=O)(=O)c2ccc3c(c2)CCC(=O)N3)cc1Cl (centres unmarked)	-13
Nc1c(C(=O)NCc2ccco2)c2nc3ccccc3nc2n1CCN1CCOCC1	7.98
Cc1nc2ccc(C(=O)OCc3ccccc3Br)cc2nc1C	2.2
COc1ccc(CNC(=O)[C@H](Cc2ccccc2)NC(=O)C2CCN(C(=O)[C@H](C)N)CC2)cc1	1.72
CC(=O)c1ccc(C(=O)N(C)C2CCCN(Cc3ccccc3F)C2)s1 (centres unmarked)	-3.2
Br.CCCCCCCCOC(=O)c1c(CSC(=N)N)n(C)c2cc(Br)c(OC(C)=O)cc12	3.23
O=C(COc1ccccc1)Nc1cccc(-c2nnc(-c3ccccc3)o2)c1	4.9
CC(=O)c1cccc(NC2c3ccccc3C(=O)N2Cc2ccc3c(c2)OCO3)c1 (centres unmarked)	0.132
Cc1cc(CSc2ccccc2)ccc1NC(=O)COc1ccccc1C	2.24
Cc1c(O)c(S(=O)c2ccccc2)c(=O)n(-c2ccccc2)c1-c1ccccc1 (centres unmarked)	4.51
COc1ccc(C(C(=O)NC(C)(C)C)N(C(=O)CCC(=O)Nc2cc(C)on2)c2ccccc2F)cc1 (centres unmarked)	6.78
C#CCOc1cc(C2C3=C(COC3=O)Nc3cc4c(cc32)OCO4)ccc1OC (centres unmarked)	17.7
Cc1c(NC(=O)/C(C#N)=C/c2ccc(-c3cccc(Cl)c3)o2)c(=O)n(-c2ccccc2)n1C	2.09
OC(CNCC(c1ccc(Cl)cc1Cl)c1c[nH]c2ccccc12)c1ccccc1 (centres unmarked)	7.22
COc1cc(SC)ccc1C(=O)N1CCCc2ccccc21	14.7
C/C(=N\NC(=O)c1ccccc1)c1c(O)n(Cc2ccccc2)c(=O)[nH]c1=O	0.925
COc1ccc(Cl)cc1NC(=O)CSc1nnc(CN2CCOCC2)n1-c1ccc(Cl)cc1	-11.4
O=C(N/N=C\c1ccccn1)C1COc2cc3ccccc3cc2O1 (centres unmarked)	9.19

Structure (SMILES)	hERG current change (%, negative = inhibition) at 1uM [%]
COc1ccccc1C(=O)NCCC(=O)N(C)Cc1ccc(C)o1	-5.36
N#Cc1cc2ccccc2nc1N	6.76
Cc1ccc(S(=O)(=O)N2CCN(C(=O)CN3CCOCC3)C2)cc1	8.97
CC(=O)c1ccc(NC(=O)CC(NCCC2=CCCCC2)C(=O)O)cc1 (centres unmarked)	9.71
O=C(c1ccc(Cl)cc1)c1coc2ccc(O)cc12	-0.871
COc1cccc(/C=C/C(=O)c2ccc(C)c([N+](=O)[O-])c2)c1	5
CC(C)N1OC2CC1c1nc3ccccc3n1C2 (centres unmarked)	11.7
COC(=O)c1c(-c2ccccc2)csc1NC(=O)c1ccco1	5.64
O=C(C1CCCO1)N1CCN(S(=O)(=O)c2ccccc2)CC1 (centres unmarked)	14.1
COc1ccc(OC)c(-n2c(O)c(/C=C3\C(C)=Nc4ccccc43)c(=O)[nH]c2=O)c1	11.6
COc1ccc(/C=C/C(=O)Nc2ccccc2)cc1OC	-1.17
O=C1CN(C(=O)COc2ccc(F)cc2Cl)c2ccccc2N1	9.81
O=C(CNC(=O)c1ccccc1F)NCc1cccnc1	18.5
O=C(c1cc2ccccc2c(=O)o1)N1CCCC1	3.4
Cc1ccc(C(=O)CSc2nc(N)cc(=O)[nH]2)cc1	8
CN(C)CCN(C(=O)c1ccc2ccccc2c1)c1nc2c(F)cccc2s1.Cl	9.87
O=C(CCCSc1ccccc1)Nc1nc(-c2ccccn2)cs1	6.21
CCOC(=O)c1ccccc1OCc1cc(/C=N/n2cncn2)ccc1OC	6.43
Cc1ccc(NC(=O)C2CCCN2S(=O)(=O)c2cccc3cccnc23)cc1F (centres unmarked)	-0.404
COc1ccc(N(C(=O)c2ccncc2)S(=O)(=O)c2ccccc2)cc1	6.01
CN(C)c1nc(N)nc(CSc2nc3c(c(=O)n(C)c(=O)n3C)n2Cc2ccccc2F)n1	3.73
COC(=O)c1ccc(C(=O)N(Cc2ccccc2)c2ccccc2)cc1	8.82

Structure (SMILES)	hERG current change (%, negative = inhibition) at 1uM [%]
Cc1onc(-c2ccccc2Cl)c1C(=O)NCc1ccc2c(c1)cc(C)n2C	14.3
COc1cc2[nH]c3c(=O)n(CCN(C(C)C)C(C)C)cnc3c2cc1OC	-0.854
CCN(CC)c1ccc(NC(=O)c2cc3c(OC)cccc3[nH]2)cc1	5.86
COc1cc2c(cc1OC)CN(CC(=O)Nc1ccccc1C(=O)NCc1ccccc1)CC2	6.38
COc1ccc(OC)c(CNC(=O)COc2cc(=O)n(C)c3ccccc23)c1	9.56
CCCCCN1C(=O)Cn2c(nc3ccccc3c2=O)C1C (centres unmarked)	7.16
CC(CN1CCN(C)CC1)OC(=O)c1cccc(F)c1.Cl (centres unmarked)	10.8
CCC(NC(=O)NNC(=O)c1ccncc1)(C(F)(F)F)C(F)(F)F	7.06
O=C(c1cn(-c2ccccc2)nc1-c1cccnc1)N1CCN(S(=O)(=O)c2cccc(F)c2)CC1	-3.38
O=C1c2ccccc2S(=O)(=O)c2cc(N3CCN(c4ccccc4)CC3)ccc21	13.3
O=C(COC(=O)C1CCC(=O)N1)Nc1ccc(Cl)cc1Cl (centres unmarked)	6.46
CNC(=S)N1CCN(c2nc(-c3ccc(F)cc3)cs2)CC1	11.3
Cc1cc(C(=O)CN2C(=O)NC(c3ccccc3)(c3ccccc3)C2=O)c(C)n1Cc1ccco1	4.77
O=[N+]([O-])c1ccc(/C=N/n2c(COc3ccccc3)n[nH]c2=S)cc1	0.0291
O=C(CN(Cc1ccc(F)cc1)C(=O)CCC(=O)Nc1ccccn1)NCCc1ccccc1	-9.81
CCOc1ccc(C(=O)N2CCC3(CC2)NCCc2[nH]cnc23)cc1	-1.01
CC(C)(C)C(=O)NC1(C(F)(F)F)NC(=O)N(Cc2ccccc2)C1=O (centres unmarked)	12
CCCN(CC(=O)Nc1ccc(F)c(F)c1F)CC(=O)Nc1c(Cl)cccc1Cl	-4.35
Cc1nnc(SC/C=C/c2ccccc2)n(N)c1=O	7.98
C/C(=N\NC(=O)c1ccccc1O)c1c(O)n(C2CCCCC2)c(=O)[nH]c1=O	14.3
